This sample is rich in variants without activity.
B1: TPR 5TU (parent)
chain: GGAUCUUCUCGAUCUAACAAAAAAGACAAAUCUGCCACAAAGCUUGAGAGCAUCUUCGGAUGCAGAGGCGGCAGCCUUCGGUGGCGCGAUAGCGCCAACGUUCUCAACUAUGACACGCAAAACGCGUGCUCCGUUGAAUGGAGUUUAUCAUG

Variants of: B1
Assay: polymerase ribozyme fitness, log enrichment relative to wild type (log ratio); higher = more active; in vitro selection for triplet polymerase activity
In short: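 After PCR construction and transcription, each subunit's mutant library from a heterodimeric triplet polymerase ribozyme was annealed with a biotinylated primer, the partner subunit and triplets. Incubation was frozen, at −7 °C, and extended constructs were gel-excised, bound to streptavidin beads and amplified by RT-PCR, in one selection round done in triplicate. Fitness is the logarithm of a genotype's enrichment divided by that of the wild type, from inverse-variance-weighted replicate averages of Illumina-sequenced inputs and outputs. The base of the logarithm is 2, and genotypes needed ≥10 input reads and ≥1 read per output.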

Variant | polymerase ribozyme fitness (log ratio)
GGAUCUUCUCGAUCUAACAAAAAAGACAAAUCUGCCACAAAGCUUGAGAGCAUCUUCGGAUGCAGAGGGGGCAGGCUUCGGUGGCGCGAUAGCGCCAACGGUCUCAACUAUGACACGCAAAACGCGUGCUCCGUUGAAUGGAGUUUAUCCUG [C69G C75G U101G A150C] | ≤ -4.2
GGAUCUUCUCGAUCUAACAAAAAAGACAAAUCUGCCACAAAGCUUGAGAGCAUCUUCGGAUGCAGAGGGGGCAGCCUUCGGUGGCGAGAUAGCGCCAACGUUCUCAACUAUGACACGCAAAACGCGUGCUCCGUUGAAUGGAGUUUAUCAUG [C69G C87A] | ≤ -4.2
GGAUCUUCUCGAUCUAACAAAAAAGACAAAUCUGCCACAAAGCUUGAGAGCAUCUUCGGAUGCAGAGGUGGCAGCCUUCGGUGGUGCGAUAGCGCCAGCGUUCUCAACUAUGACCCGCAAAACGCGUGCUCCGUUGAAUGGACUUUAUCAUG [C69U C85U A98G A115C G143C] | ≤ -4.2
GGAUCUUCUCGAUCUAACAAAAAAGACAAAUCUGCCACAAAGCUUGAGAGCAUCUUCGGAUGCAGAGGUGGCAGCCUUCGGUGGUGCGAUAGCGCCAACGUUCUCAACUAUGACACGCAAAACGCGUGCUCCGUUGAAUGGAGUUUAUCAUG [C69U C85U] | -1.39
GGAUCUUCUCGAUCUAACAAAAAAGACAAAUCUGCCACAAAGCUUGAGAGCAUCUUCGGAUGCAGAGGGGGCAGCCUUCGGUGGAGCGAUAGCGCAAACGUUCUCAACUAUGACACGCAAAACGCGUGCUUCGUUGAAUGGAGUUUAUCAUG [C69G C85A C96A C131U] | ≤ -4.2
GGAUCUUCUCGAUCUAACAAAAAAGACAAAUCUGCCACAAAGCUUGAGAGCAUCUUCGGAUGCAGAGGUGGCAGCCUUCGGUGGCGGGAUAGCGCCAACGUUCUCAACUAUGACACGCAAAACGCGUGCUCCGUUGAAUGGAGUUUAGCAUG [C69U C87G U148G] | ≤ -4.2
GGAUCUUCUCGAUCUAACAAAAAAGACAAAUCUGCCACAAAGCUUGAGAGCAUCUUCGGAUGCAGAGGUGGCAGCCUUCGGUGGCGCGAUUGCGCCAACGUUCUCAACUAUGACACGCAAAACGCGUGCUCCGUUGAAUGGAGUUUAUCAUG [C69U A91U] | ≤ -4.2
GGAUCUUCUCGAUCUAACAAAAAAGACAAAUCUGCCACAAAGCUUGAGAGCAUCUUCGGAUGCAGAGGUGGCAGCCUUCGGUGGCGCGAUAGUGCCAACGUUCUCAACUAUGACACGCAAAACGCGUGCUCCGUUGAAUGGAGUUUAUCAUG [C69U C93U] | -2.33
GGAUCUUCUCGAUCUAACAAAAAAGACAAAUCUGCCACAAAGCUUGAGAGCAUCUUCGGAUGCAGAGGCAGCAGUCUUCGGUGGCGGGAUAGCGCCAAGGUUAUCAACUAUGACACGCAAAACGCGUGCUCCGUUGAAUUGAGGUGAUCAUG [G70A C75U C87G C99G C103A G140U U144G U146G] | ≤ -4.2
GGAUCUUCUCGAUCUAACAAAAAAGACAAAUCUGCCACAAAGCUUGAGAGCAUCUUCGGAUGCAGAGGCAGCAGCCUUCGGUGGGGCGAUAGCGCCAACGUUCUCAACUAUGACACGCAUAACGCAUGCUCCGAUGAAUGGAGUUUAUCAUG [G70A C85G A120U G126A U134A] | ≤ -4.2
GGAUCUUCUCGAUCUAACAAAAAAGACAAAUCUGCCACAAAGCUUGAGAGCAUCUUCGGAUGCAGAGGUGGCAGCCUUCGGUGGCGCGAUAGCGCCAACGUUCUCAACUAUGACACGCAAAACGCGUGCUCCGAUGAAGGGAGUUUAUCAUG [C69U U134A U139G] | ≤ -4.2
GGAUCUUCUCGAUCUAACAAAAAAGACAAAUCUGCCACAAAGCUUGAGAGCAUCUUCGGAUGCAGAGGAGGCAGCCUUCGGGGGCGCGAUAGCGCCAACGUUCUCAACUAUGACACGCAAAACGCGUGCUCCGUUGAAUGGAGUUUAUCAUG [C69A U82G] | -1.91
GGAUCUUCUCGAUCUAACAAAAAAGACAAAUCUGCCACAAAGCUUGAGAGCAUCUUCGGAUGCAGAGGGGGUAGCCUUAGGUGGUGCGAUAGCGCCAACGUUCUCAGCUAUGACACGCAAAACGCGUGCUCCGUUGUAUGGAGAUUAUCAUG [C69G C72U C79A C85U A107G A137U U144A] | ≤ -4.2
GGAUCUUCUCGAUCUAACAAAAAAGACAAAUCUGCCACAAAGCUUGAGAGCAUCUUCGGAUGCAGAGGUGGCAGCCUUCGGUGGCGCGAUAGCGCAAACGUUCUCAACUAUGACACGCAAAACGCGUGCUCCGUUGAAUGGAGUUUAUCAUG [C69U C96A] | -1.12
GGAUCUUCUCGAUCUAACAAAAAAGACAAAUCUGCCACAAAGCUUGAGAGCAUCUUCGGAUGCAGAGGUGGCAGACUUCGGUGGGGCGAUAGCGCCAACGUUCUCAACUAUGACAGGCAAAACGCGUGCUCCGUUGAAUGGAGUUUAUCAUG [C69U C75A C85G C116G] | ≤ -4.2
GGAUCUUCUCGAUCUAACAAAAAAGACAAAUCUGCCACAAAGCUUGAGAGCAUCUUCGGAUGCAGAGGUGGCAGCCUUCGUUGGCGCGAUAGCGUCAACGUUCUCAACUAUAAUACGCAAAACGCGUGCUCCGUGGAAUGGAGUUUAUCAUG [C69U G81U C95U G112A C114U U135G] | ≤ -4.2
GGAUCUUCUCGAUCUAACAAAAAAGACAAAUCUGCCACAAAGCUUGAGAGCAUCUUCGGAUGCAGAGGUGGCAGCCUUCGGUGGUGCGAUAGCGCCAACGUUCUCAACUAUGACACGCAAAACGCGGGCUCCGUUGAAUGGAGUUUAUCAUG [C69U C85U U127G] | -3.4
GGAUCUUCUCGAUCUAACAAAAAAGACAAAUCUGCCACAAAGCUUGAGAGCAUCUUCGGAUGCAGAGGGGGCAGCCAUCGGUGGCGCGAUAGCGCCAACGUUCUCAACUAUGACACGCAAGACGCGUGCUCCGUUGAAUGGAGUUUAUCAUG [C69G U77A A121G] | ≤ -4.2
GGAUCUUCUCGAUCUAACAAAAAAGACAAAUCUGCCACAAAGCUUGAGAGCAUCUUCGGAUGCAGAGGUGGCAGCCUUCGGUGGCGUGAUACCGCCAACGUUCUCAACUAUGACACGCAAAACGCGUGCUCCGUUGAAUGGAGUUUAUCGUG [C69U C87U G92C A150G] | -3.27

Variant | polymerase ribozyme fitness (log ratio)
GGAUCUUCUCGAUCUAACAAAAAAGACAAAUCUGCCACAAAGCUUGAGAGCAUCUUCGGAUGCAGAGGCAGCAGCCUUCGGUGGCGCGCUAGCGCCAACGUUCUCAACUAUGACACGCAAAACGCGUGCUCCGUUGAACGGAGAUUAUCAUG [G70A A89C U139C U144A] | ≤ -4.2
GGAUCUUCUCGAUCUAACAAAAAAGACAAAUCUGCCACAAAGCUUGAGAGCAUCUUCGGAUGCAGAGGCAGCAGCCUUCGGUGGCGCGAUUGCGCCAACGUUCUCAACUAUGACACGCAAAACGCGUGCUCCGUUGAAUGGAGUUUAUCAUG [G70A A91U] | ≤ -4.2
GGAUCUUCUCGAUCUAACAAAAAAGACAAAUCUGCCACAAAGCUUGAGAGCAUCUUCGGAUGCAGAGGGGGCAGCCUUCGGUGGCGCGAUUGCGCCAACGUUCUCACCUAUGACACGCAAAACACGUGCUCCGUUGAAUGGAGUUUAACAUG [C69G A91U A107C G124A U148A] | ≤ -4.2
GGAUCUUCUCGAUCUAACAAAAAAGACAAAUCUGCCACAAAGCUUGAGAGCAUCUUCGGAUGCAGAGGUGGCAGCCUUCGGUGGCGCGAUAGUGCCAACGUUCGCAACUAUGACACGCAAAACGGGUACUCCGUUGAAUGGAGUUUAUCAUG [C69U C93U U104G C125G G128A] | ≤ -4.2
GGAUCUUCUCGAUCUAACAAAAAAGACAAAUCUGCCACAAAGCUUGAGAGCAUCUUCGGAUGCAGAGGGGGCAGCCUUCGGUGGCGCGAUAGCACCAACGUUCUCAACUAUGACACGCAAAACGCGUGCUCCGUUGAAUGGAGUUUAUCAUG [C69G G94A] | -1.15
GGAUCUUCUCGAUCUAACAAAAAAGACAAAUCUGCCACAAAGCUUGAGAGCAUCUUCGGAUGCAGAGGUGUCAGCCUUCGGUGGCGUGCUAGCGCCAACGUUCUCAACUAUGACACGCAAAACGCGUGCUCCGAUGAAUUGAGUUUAUCAUG [C69U G71U C87U A89C U134A G140U] | ≤ -4.2
GGAUCUUCUCGAUCUAACAAAAAAGACAAAUCUGCCACAAAGCUUGAGAGCAUCUUCGGAUGCAGAGGGGGCAGCCUUUGGUGGCGCGAUGGCGCCAAUGUUCUCAGCUAUGACACGCAAAACGCGUGCUCCGUUGAAUGGAGUUUAUCAUG [C69G C79U A91G C99U A107G] | ≤ -4.2
GGAUCUUCUCGAUCUAACAAAAAAGACAAAUCUGCCACAAAGCUUGAGAGCAUCUUCGGAUGCAGAGGUGGCAGCCUUCAGUGGCGCGAUAGCACCUACGUUCUCAACUAUGACACGCAAAACGCGUGCUCCGUUGAAUGGAGUUUAUGAUG [C69U G80A G94A A97U C149G] | ≤ -4.2
GGAUCUUCUCGAUCUAACAAAAAAGACAAAUCUGCCACAAAGCUUGAGAGCAUCUUCGGAUGCAGAGGUGGCAGCCUUCGGUGGCGCGAUAGCGCCAACGUUGUCAACUAUGAUACGCAAAACGCGUGCUCCGUUGAAUGGAGUUUAUCAUG [C69U C103G C114U] | ≤ -4.2
GGAUCUUCUCGAUCUAACAAAAAAGACAAAUCUGCCACAAAGCUUGAGAGCAUCUUCGGAUGCAGAGGUGGCAGGCUUCGGUGGCGCGAUAGCGCCAACGUUCUCAACUAUGACACGCAAAACGCGUGCUCCGUUGAAUGGAGUUUAUCAUA [C69U C75G G152A] | ≤ -4.2
GGAUCUUCUCGAUCUAACAAAAAAGACAAAUCUGCCACAAAGCUUGAGAGCAUCUUCGGAUGCAGAGGGGGCAGCCUUCGGUGGCGCGAUAGCGCCAAUGUUCUCAACUAUGACACGCAAAACGCGUGCUCCUUUGAAUGGAGUUUAUCAUG [C69G C99U G133U] | ≤ -4.2
GGAUCUUCUCGAUCUAACAAAAAAGACAAAUCUGCCACAAAGCUUGAGAGCAUCUUCGGAUGCAGAGGUGGCAGCCUUCGGUGGGGCGAUAGCGCCAACGUUCUCAACUAUGACACGCAAAACGCGUGCUCCGUUGAAUGGAGUUUAUUAUG [C69U C85G C149U] | -2.74
GGAUCUUCUCGAUCUAACAAAAAAGACAAAUCUGCCACAAAGCUUGAGAGCAUCUUCGGAUGCAGAGGUGGUAGCCGUCGGUGGCGCGUUAGCGCCAACGUUCUCAACUAUGACACGUAAAACGCGUGCGCCGUAGAAUGGAGUUUAUCAUG [C69U C72U U77G A89U C118U U130G U135A] | ≤ -4.2
GGAUCUUCUCGAUCUAACAAAAAAGACAAAUCUGCCACAAAGCUUGAGAGCAUCUUCGGAUGCAGAGGGGGCAGCCUUCGGUGACGCGAUAGCGCCAACGCUCUCAACUAUGACACGCAAAACGCGUGCUCCGUUGAAUGGAGUUUAUCAUG [C69G G84A U101C] | -2.05
GGAUCUUCUCGAUCUAACAAAAAAGACAAAUCUGCCACAAAGCUUGAGAGCAUCUUCGGAUGCAGAGGUGGCAGCCUUCGGUGGCGCGAUAGCGCCAACGUUCUCAACUAUGACACGAAAAACGCGGGCUCCGUUGAAUGGAGUUUAUCAUG [C69U C118A U127G] | ≤ -4.2
GGAUCUUCUCGAUCUAACAAAAAAGACAAAUCUGCCACAAAGCUUGAGAGCAUCUUCGGAUGCAGAGGCAGCAGCCUUGGUUGGCGCGAUAGCGACAACGUUCUCAACUAUGACACGCAAAACGCGUGCUCCGUUGAAAGGAGUUUAUCAUG [G70A C79G G81U C95A U139A] | ≤ -4.2
GGAUCUUCUCGAUCUAACAAAAAAGACAAAUCUGCCACAAAGCUUGAGAGCAUCUUCGGAUGCAGAGGGGGCAGCCUUCGGUGUCGCGUUAGCGCCAACGUUCUCAACUAUGACACGCAAACCGCGUGCUCCGUUGAAUGGAGUUCAUCAUG [C69G G84U A89U A122C U146C] | -2.82
GGAUCUUCUCGAUCUAACAAAAAAGACAAAUCUGCCACAAAGCUUGAGAGCAUCUUCGGAUGCAGAGGUGGCAGCCUUCGGUGACGCGAUAGCGCCAACGUUCUCAACUAUGACGCUCAAAACGCGUGCUCCGUUCAAUGGAGUUUAUCAUG [C69U G84A A115G G117U G136C] | ≤ -4.2
GGAUCUUCUCGAUCUAACAAAAAAGACAAAUCUGCCACAAAGCUUGAGAGCAUCUUCGGAUGCAGAGGUGGCAGCCUUCGGUGGCGAGAUAGCGCCAACGUUCUCAACUAUGGCACGCAAAACGCGUCCUCCGUUGAAUGGAGUUUAUCAUG [C69U C87A A113G G128C] | ≤ -4.2

— the RNAGym collection of RNA variant scans (doi:10.1073/pnas.2313332121)
